Experimental data as given in CN115246884A (SHANGHAI JUNSHI BIOSCIENCES CO LTD; JUNMENG BIOSCIENCES CO …, dated 2022).

Assays:
生物素化的PD-L1抗原 = 生物素化的PD-L1抗原 (UniProt Q9NZQ7); assay: competition ELISA, biotinylated PD-L1 on streptavidin, competitor PD-1 mFc 2.0 μg/mL; ratio = IC50 of chimeric antibody / IC50 of humanised antibody x 100%
His标签人PD-L1抗原 (human) = His标签人PD-L1抗原 (human) (UniProt Q9NZQ7); assay: ELISA, His-tagged human PD-L1 coated at 2.0 μg/mL; ratio = EC50 of chimeric antibody C1 (chC1) / EC50 of humanised antibody x 100%

Binder	相对竞争抑制活性，% (生物素化的PD-L1抗原) [%]	相对结合活性，% (His标签人PD-L1抗原 (human)) [%]
人源化抗PD-L1单域抗体C1-hu7 (Fc fusion) heavy: EVQLLESGGGLVQPGGSLRLSCAASGAAPCMAWFRQAPGKGLEGVAASVRGGLSPYYADVKGRFTISHDIPKNTMYLQMNSLRAEDTAVYYCAARATFYRCEGDASSYTYWGQGTLVTVSSGGGGS[sequence of human IgG4 Fc with S228P (EU numbers) not given]	84.8	89.8
人源化抗PD-L1单域抗体C1-hu8 (Fc fusion) heavy: EVQLVESGGGLVQPGGSLRLSCAASGAAPCMAWFRQAPGKGLEGVAASVRGGLSPYYADVKGRFTISHDIPKNTMYLQMNSLRAEDTAVYYCAARATFYRCEGDASSYTYWGQGTLVTVSSGGGGS[sequence of human IgG4 Fc with S228P (EU numbers) not given]	93	91.2
人源化抗PD-L1单域抗体C1-hu10 (Fc fusion) heavy: EVQLVESGGGLVQPGGSLRLSCAASGAAPCMAWFRQAPGKELEGVAASVRGGLSPYYADVKGRFTISHDIPKNTMYLQMNSLRAEDTAVYYCAARATFYRCEGDASSYTYWGQGTLVTVSSGGGGS[sequence of human IgG4 Fc with S228P (EU numbers) not given]	98.1	88.2
人源化抗PD-L1单域抗体C1-hu17 (Fc fusion) heavy: EVQLLESGGGLVQPGGSLRLSCAASGAAPCMAWFRQAPGKGLEGVAASVRGGLSPYYADSVKGRFTISHDIPKNTMYLQMNSLRAEDTAVYYCAARATFYRCEGDASSYTYWGQGTLVTVSSGGGGS[sequence of human IgG4 Fc with S228P (EU numbers) not given]	86.8	75.2
人源化抗PD-L1单域抗体C1-hu18 (Fc fusion) heavy: EVQLVESGGGLVQPGGSLRLSCAASGAAPCMAWFRQAPGKGLEGVAASVRGGLSPYYADSVKGRFTISHDIPKNTMYLQMNSLRAEDTAVYYCAARATFYRCEGDASSYTYWGQGTLVTVSSGGGGS[sequence of human IgG4 Fc with S228P (EU numbers) not given]	93.4	83.6
人源化抗PD-L1单域抗体C1-hu20 (Fc fusion) heavy: EVQLVESGGGLVQPGGSLRLSCAASGAAPCMAWFRQAPGKGREGVAASVRGGLSPYYADSVKGRFTISHDIPKNTMYLQMNSLRAEDTAVYYCAARATFYRCEGDASSYTYWGQGTLVTVSSGGGGS[sequence of human IgG4 Fc with S228P (EU numbers) not given]	99.7	79.4
人源化抗PD-L1单域抗体C1-hu21 (Fc fusion) heavy: EVQLVESGGGLVQPGGSLRLSCAASGAAPCMAWFRQAPGKEREGVAASVRGGLSPYYADSVKGRFTISHDIPKNTMYLQMNSLRAEDTAVYYCAARATFYRCEGDASSYTYWGQGTLVTVSSGGGGS[sequence of human IgG4 Fc with S228P (EU numbers) not given]	101	76
